Source: the antibiotic and cytotoxicity screens of Wong et al. (2023)
The list shows a part of the results.

Experiments:
HSkMC = human skeletal muscle cells; assay: cytotoxicity call (relative viability < 0.9); conditions: 10 µM
HepG2 = assay: cytotoxicity call (relative viability < 0.9); conditions: 10 µM
S. aureus RN4220 = assay: growth inhibition call (relative growth <= 0.2); conditions: 50 µM

Row | Structure (SMILES) | cytotoxicity call (HSkMC) | cytotoxicity call (HepG2) | growth inhibition call (S. aureus RN4220)
1 | C[C@@H]1CCCCO[C@@H](CN(C)Cc2ccc(C(F)(F)F)cc2)[C@H](C)CN([C@H](C)CO)C(=O)c2cc(NC(=O)Nc3ccccc3)ccc2O1 | active | active | inactive
2 | C[C@@H]1CCCCO[C@H](CN(C)C(=O)Nc2ccc(F)cc2)[C@@H](C)CN([C@@H](C)CO)C(=O)c2cc(NC(=O)NC3CCCCC3)ccc2O1 | inactive | inactive | inactive
3 | O=C(Nc1ccc([N+](=O)[O-])cc1Cl)c1cc(Cl)ccc1O | active | active | inactive
4 | C[C@@H]1CN([C@H](C)CO)C(=O)c2cc(NC(=O)Cn3cnnn3)ccc2O[C@H]1CN(C)Cc1ccc(C(=O)Nc2ccccc2N)cc1 | inactive | inactive | inactive
5 | C[C@@H]1CN([C@@H](C)CO)C(=O)c2ccccc2-c2ccccc2CO[C@@H]1CN(C)C(=O)Nc1cccc(C(F)(F)F)c1 | inactive | inactive | inactive
6 | CN(C)c1nc2ncnc(N)c2[nH]1 | inactive | inactive | inactive
7 | O=C(Cn1ccc([N+](=O)[O-])n1)Nc1cccnc1 | inactive | inactive | inactive
8 | C[C@@H]1CN([C@H](C)CO)C(=O)c2cc(NC(=O)CCCN(C)C)ccc2O[C@H]1CN(C)Cc1ccccc1 | inactive | inactive | inactive
9 | C[C@@H]1CCCCO[C@H](CN(C)S(=O)(=O)c2ccc(Cl)cc2)[C@H](C)CN([C@H](C)CO)C(=O)c2cc(NC(=O)NC3CCCCC3)ccc2O1 | inactive | active | inactive
10 | C[C@H](CO)N1C[C@H](C)[C@H](CN(C)Cc2cccc(C(=O)O)c2)OCc2ccccc2-c2c(n(C)c3ccccc23)C1=O | inactive | inactive | inactive
11 | C[C@H]1CN([C@@H](C)CO)C(=O)Cc2cc(NC(=O)CCC(F)(F)F)ccc2O[C@H]1CN(C)S(=O)(=O)c1ccccc1 | inactive | inactive | inactive
12 | C[C@H](CO)N1C[C@H](C)[C@@H](CN(C)Cc2ccc(-c3ccccc3)cc2)Oc2ccc(NC(=O)Nc3ccc4c(c3)OCO4)cc2CC1=O | inactive | inactive | inactive
13 | COc1ccc(S(=O)(=O)Nc2ccc3c(c2)C(=O)N([C@H](C)CO)C[C@@H](C)[C@@H](CN(C)S(=O)(=O)c2ccc(Cl)cc2)OCCCC[C@@H](C)O3)cc1 | inactive | inactive | inactive
14 | COc1ccc(-c2cnc3c(c2)C(=O)N([C@@H](C)CO)C[C@@H](C)[C@H](CN(C)C(=O)Cc2ccccn2)O3)cc1 | inactive | inactive | inactive
15 | COc1ccc(S(=O)(=O)N(C)C[C@H]2Oc3ccc(NS(=O)(=O)c4ccc(C)cc4)cc3CC(=O)N([C@H](C)CO)C[C@H]2C)cc1 | inactive | inactive | inactive
16 | C[C@H]1CCCCO[C@H](CN(C)Cc2ccncc2)[C@@H](C)CN([C@@H](C)CO)C(=O)c2cc(NC(=O)C3CCCCC3)ccc2O1 | inactive | inactive | inactive
17 | Cc1ccc(S(=O)(=O)Nc2ccc3c(c2)C(=O)N([C@@H](C)CO)C[C@H](C)[C@@H](CN(C)Cc2ccc(C(=O)O)cc2)OCCCC[C@H](C)O3)cc1 | inactive | inactive | inactive
18 | Cc1noc(C)c1S(=O)(=O)N(C)C[C@@H]1OCCCC[C@H](C)Oc2ccc(N(C)C)cc2C(=O)N([C@@H](C)CO)C[C@H]1C | inactive | inactive | inactive
19 | CCN(CC)C(=O)c1ccc[n+](CC(N)=O)c1 | inactive | inactive | inactive
20 | Cc1ccc2c(c1)[C@@]1(CC(=O)N(Cc3ccccc3)C1=O)C(=O)N2CCCn1c(=O)c2c(ncn2C)n(C)c1=O | inactive | inactive | inactive
21 | Cc1ccc(S(=O)(=O)Nc2ccc3c(c2)C(=O)N([C@H](C)CO)C[C@@H](C)[C@@H](CN(C)Cc2ccc4c(c2)OCO4)OCCCC[C@H](C)O3)cc1 | inactive | inactive | inactive
22 | C[C@@H]1CN([C@@H](C)CO)C(=O)c2cccc(NC(=O)c3ccc(-c4nccs4)cc3)c2O[C@@H]1CN(C)C(=O)Nc1ccc(F)cc1 | inactive | inactive | inactive
23 | Cc1ccc(S(=O)(=O)N(C)C[C@H]2OCCCC[C@H](C)Oc3ccc(NS(=O)(=O)c4ccc(F)cc4)cc3C(=O)N([C@H](C)CO)C[C@@H]2C)cc1 | inactive | inactive | inactive
24 | C[C@H](CO)N1C[C@H](C)[C@@H](CN(C)Cc2ccc(-c3ccccc3)cc2)Oc2c(NC(=O)C3CC3)cccc2C1=O | inactive | inactive | inactive
